# The other results are listed elsewhere or left out.
# B1: VLRB.aGPA.23-GCN4-biotin (Petromyzon marinus) (protein)
# chain: ACPSQCSCSGTEVNCAGKSLASVPAGIPTTTRVLYLNSNQITKLEPGVFDRLANLRELHLWGNQLVSLPPGVFDNLANLEKLWLNSNQLTSLPAGLFDRLVNLEHLGLCCMKLTELPSGAFDKLTRLKQLGLDQNQLKSIPDGAFARLPSLTHVWLHTNPWDCQCTDILYLSGWVAQHSSIVGEGWPWRHSPDSAKCSGTNTPVRAVTEASTSPSKCP
# Assays:
# Test in all cases: glycan array binding signal (z-score within array); higher = stronger binding
# Settings in all cases: glycan notation: IUPAC condensed, linker removed
# Kdn(a2-3)Gal(b1-4)Glc = biological target: Kdn(a2-3)Gal(b1-4)Glc
# Summary of the method: (§1)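 Arrays were curated from the Consortium for Functional Glycomics database, 3228 in total, and kept only where the protein sequence was available. Binding is expressed as a within-array Z-score. This score was averaged across arrays of the same protein sequence at different concentrations or buffers and across linkers, and negative values can be read as non-binding.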
# Kdn(a2-3)Gal(b1-4)GlcNAc = biological target: Kdn(a2-3)Gal(b1-4)GlcNAc
# Summary of the method: as §1
# [1] = biological target: Kdn(a2-3)Gal(b1-4)[Fuc(a1-3)]GlcNAc
# Summary of the method: as §1
# Kdn(a2-6)Gal(b1-4)GlcNAc = biological target: Kdn(a2-6)Gal(b1-4)GlcNAc
# Summary of the method: as §1
# [2] = biological target: Man(a1-2)Man(a1-2)Man(a1-3)Man
# Summary of the method: as §1
# [3] = biological target: Man(a1-2)Man(a1-2)Man(a1-6)[Man(a1-3)]Man
# Summary of the method: as §1
# Man(a1-2)Man(a1-3)Man = biological target: Man(a1-2)Man(a1-3)Man
# Summary of the method: as §1
# [4] = biological target: Man(a1-2)Man(a1-3)[Man(a1-2)Man(a1-6)]Man
# Summary of the method: as §1
# [5] = biological target: Man(a1-2)Man(a1-3)[Man(a1-2)Man(a1-6)]Man(a1-6)[Man(a1-2)Man(a1-2)Man(a1-3)]Man
# Summary of the method: as §1
# [6] = biological target: Man(a1-2)Man(a1-3)[Man(a1-2)Man(a1-6)]Man(a1-6)[Man(a1-2)Man(a1-2)Man(a1-3)]Man(b1-4)GlcNAc(b1-4)GlcNAc
# Summary of the method: as §1
# [7] = biological target: Man(a1-2)Man(a1-3)[Man(a1-6)]Man(a1-6)[Man(a1-2)Man(a1-3)]Man(b1-4)GlcNAc(b1-4)GlcNAc
# Summary of the method: as §1
# [8] = biological target: Man(a1-2)Man(a1-6)[Man(a1-3)]Man(a1-6)[Man(a1-2)Man(a1-2)Man(a1-3)]Man
# Summary of the method: as §1
# [9] = biological target: Man(a1-2)Man(a1-6)[Man(a1-3)]Man(a1-6)[Man(a1-2)Man(a1-2)Man(a1-3)]Man(b1-4)GlcNAc(b1-4)GlcNAc
# Summary of the method: as §1
# Man(a1-3)[Man(a1-6)]Man = biological target: Man(a1-3)[Man(a1-6)]Man
# Summary of the method: as §1
# [10] = biological target: Man(a1-3)[Man(a1-6)]Man(a1-6)[Man(a1-2)Man(a1-3)]Man(b1-4)GlcNAc(b1-4)GlcNAc
# Summary of the method: as §1
# [11] = biological target: Man(a1-3)[Man(a1-6)]Man(a1-6)[Man(a1-3)]Man
# Summary of the method: as §1
# [12] = biological target: Man(a1-3)[Man(a1-6)]Man(a1-6)[Man(a1-3)]Man(b1-4)GlcNAc(b1-4)GlcNAc
# Summary of the method: as §1
# [13] = biological target: Man(a1-3)[Man(a1-6)]Man(b1-4)GlcNAc(b1-4)GlcNAc
# Summary of the method: as §1
# [14] = biological target: Man(a1-3)[Man(a1-6)]Man(b1-4)GlcNAc(b1-4)[Fuc(a1-6)]GlcNAc
# Summary of the method: as §1
# Man(a1-6)Man = biological target: Man(a1-6)Man
# Summary of the method: as §1
# Man(b1-4)GlcNAc = biological target: Man(b1-4)GlcNAc
# Summary of the method: as §1
# MurNAc(b1-4)GlcNAc = biological target: MurNAc(b1-4)GlcNAc
# Summary of the method: as §1
# Neu5Ac(a2-3)Gal = biological target: Neu5Ac(a2-3)Gal
# Summary of the method: as §1
# [15] = biological target: Neu5Ac(a2-3)Gal(b1-3)GalNAc
# Summary of the method: as §1
# [16] = biological target: Neu5Ac(a2-3)Gal(b1-3)GalNAc(b1-3)Gal(a1-4)Gal(b1-4)Glc
# Summary of the method: as §1
# [17] = biological target: Neu5Ac(a2-3)Gal(b1-3)GalNAc(b1-4)[Neu5Ac(a2-3)]Gal(b1-4)Glc
# Summary of the method: as §1
# [18] = biological target: Neu5Ac(a2-3)Gal(b1-3)GalNAc(b1-4)[Neu5Ac(a2-8)Neu5Ac(a2-3)]Gal(b1-4)Glc
# Summary of the method: as §1
# [19] = biological target: Neu5Ac(a2-3)Gal(b1-3)GalNAc6S
# Summary of the method: as §1
# [20] = biological target: Neu5Ac(a2-3)Gal(b1-3)GlcNAc
# Summary of the method: as §1
# [21] = biological target: Neu5Ac(a2-3)Gal(b1-3)GlcNAc(b1-2)Man
# Summary of the method: as §1
# [22] = biological target: Neu5Ac(a2-3)Gal(b1-3)GlcNAc(b1-2)Man(a1-3)[GlcNAc(b1-4)][Neu5Ac(a2-3)Gal(b1-3)GlcNAc(b1-2)Man(a1-6)]Man(b1-4)GlcNAc(b1-4)GlcNAc
# Summary of the method: as §1
# [23] = biological target: Neu5Ac(a2-3)Gal(b1-3)GlcNAc(b1-2)Man(a1-3)[Neu5Ac(a2-3)Gal(b1-3)GlcNAc(b1-2)Man(a1-6)]Man(b1-4)GlcNAc(b1-4)GlcNAc
# Summary of the method: as §1
# [24] = biological target: Neu5Ac(a2-3)Gal(b1-3)GlcNAc(b1-3)Gal(b1-3)GlcNAc
# Summary of the method: as §1
# [25] = biological target: Neu5Ac(a2-3)Gal(b1-3)GlcNAc(b1-3)Gal(b1-4)GlcNAc
# Summary of the method: as §1
# [26] = biological target: Neu5Ac(a2-3)Gal(b1-3)GlcNAc(b1-3)GalNAc
# Summary of the method: as §1
# [27] = biological target: Neu5Ac(a2-3)Gal(b1-3)GlcNAc(b1-4)Gal(b1-4)Glc
# Summary of the method: as §1
# [28] = biological target: Neu5Ac(a2-3)Gal(b1-3)GlcNAc(b1-6)GalNAc
# Summary of the method: as §1
# [29] = biological target: Neu5Ac(a2-3)Gal(b1-3)GlcNAc6S
# Summary of the method: as §1
# [30] = biological target: Neu5Ac(a2-3)Gal(b1-3)[Fuc(a1-4)]GlcNAc
# Summary of the method: as §1
# [31] = biological target: Neu5Ac(a2-3)Gal(b1-3)[Fuc(a1-4)]GlcNAc(b1-3)Gal(b1-3)[Fuc(a1-4)]GlcNAc
# Summary of the method: as §1
# [32] = biological target: Neu5Ac(a2-3)Gal(b1-3)[Fuc(a1-4)]GlcNAc(b1-3)Gal(b1-4)[Fuc(a1-3)]GlcNAc
# Summary of the method: as §1
# [33] = biological target: Neu5Ac(a2-3)Gal(b1-3)[GlcNAc(b1-6)]GalNAc
# Summary of the method: as §1
# [34] = biological target: Neu5Ac(a2-3)Gal(b1-3)[Neu5Ac(a2-6)]GalNAc
# Summary of the method: as §1
# [35] = biological target: Neu5Ac(a2-3)Gal(b1-3)[Neu5Ac(a2-6)]GlcNAc(b1-3)[Fuc(a1-3)[Gal(b1-4)]GlcNAc(b1-6)]Gal(b1-4)Glc
# Summary of the method: as §1
# [36] = biological target: Neu5Ac(a2-3)Gal(b1-3)]Neu5Ac(a2-3)Gal(b1-4)]GlcNAc
# Summary of the method: as §1
# Neu5Ac(a2-3)Gal(b1-4)Glc = biological target: Neu5Ac(a2-3)Gal(b1-4)Glc
# Summary of the method: as §1
# [37] = biological target: Neu5Ac(a2-3)Gal(b1-4)GlcNAc
# Summary of the method: as §1
# [38] = biological target: Neu5Ac(a2-3)Gal(b1-4)GlcNAc(b1-2)Man
# Summary of the method: as §1
# [39] = biological target: Neu5Ac(a2-3)Gal(b1-4)GlcNAc(b1-2)Man(a1-3)[GlcNAc(b1-4)][Neu5Ac(a2-3)Gal(b1-4)GlcNAc(b1-2)Man(a1-6)]Man(b1-4)GlcNAc(b1-4)GlcNAc
# Summary of the method: as §1
# [40] = biological target: Neu5Ac(a2-3)Gal(b1-4)GlcNAc(b1-2)Man(a1-3)[Neu5Ac(a2-3)Gal(b1-4)GlcNAc(b1-2)Man(a1-6)]Man(b1-4)GlcNAc(b1-4)GlcNAc
# Summary of the method: as §1
# [41] = biological target: Neu5Ac(a2-3)Gal(b1-4)GlcNAc(b1-2)Man(a1-3)[Neu5Ac(a2-3)Gal(b1-4)GlcNAc(b1-2)Man(a1-6)]Man(b1-4)GlcNAc(b1-4)[Fuc(a1-6)]GlcNAc
# Summary of the method: as §1
# [42] = biological target: Neu5Ac(a2-3)Gal(b1-4)GlcNAc(b1-2)Man(a1-3)[Neu5Ac(a2-6)Gal(b1-4)GlcNAc(b1-2)Man(a1-6)]Man(b1-4)GlcNAc(b1-4)GlcNAc
# Summary of the method: as §1
# [43] = biological target: Neu5Ac(a2-3)Gal(b1-4)GlcNAc(b1-2)[Neu5Ac(a2-3)Gal(b1-4)GlcNAc(b1-4)]Man(a1-3)[GlcNAc(b1-4)][Neu5Ac(a2-3)Gal(b1-4)GlcNAc(b1-2)[Neu5Ac(a2-3)Gal(b1-4)GlcNAc(b1-6)]Man(a1-6)]Man(b1-4)GlcNAc(b1-4)GlcNAc
# Summary of the method: as §1
binder,measurement,setting,value
B1,glycan array binding signal (z-score),Kdn(a2-3)Gal(b1-4)Glc,-0.079
same,glycan array binding signal (z-score),Kdn(a2-3)Gal(b1-4)GlcNAc,-0.08
same,glycan array binding signal (z-score),[1],-0.073
same,glycan array binding signal (z-score),Kdn(a2-6)Gal(b1-4)GlcNAc,-0.082
same,glycan array binding signal (z-score),[2],-0.071
same,glycan array binding signal (z-score),[3],-0.059
same,glycan array binding signal (z-score),Man(a1-2)Man(a1-3)Man,-0.083
same,glycan array binding signal (z-score),[4],-0.082
same,glycan array binding signal (z-score),[5],-0.081
same,glycan array binding signal (z-score),[6],-0.043
same,glycan array binding signal (z-score),[7],-0.072
same,glycan array binding signal (z-score),[8],-0.081
same,glycan array binding signal (z-score),[9],-0.086
same,glycan array binding signal (z-score),Man(a1-3)[Man(a1-6)]Man,-0.082
same,glycan array binding signal (z-score),[10],0.041
same,glycan array binding signal (z-score),[11],-0.08
same,glycan array binding signal (z-score),[12],-0.08
same,glycan array binding signal (z-score),[13],-0.061
same,glycan array binding signal (z-score),[14],-0.074
same,glycan array binding signal (z-score),Man(a1-6)Man,-0.075
same,glycan array binding signal (z-score),Man(b1-4)GlcNAc,-0.078
same,glycan array binding signal (z-score),MurNAc(b1-4)GlcNAc,-0.088
same,glycan array binding signal (z-score),Neu5Ac(a2-3)Gal,-0.084
same,glycan array binding signal (z-score),[15],-0.08
same,glycan array binding signal (z-score),[16],-0.079
same,glycan array binding signal (z-score),[17],-0.073
same,glycan array binding signal (z-score),[18],-0.073
same,glycan array binding signal (z-score),[19],-0.082
same,glycan array binding signal (z-score),[20],-0.063
same,glycan array binding signal (z-score),[21],-0.081
same,glycan array binding signal (z-score),[22],-0.084
same,glycan array binding signal (z-score),[23],-0.077
same,glycan array binding signal (z-score),[24],-0.081
same,glycan array binding signal (z-score),[25],-0.087
same,glycan array binding signal (z-score),[26],-0.08
same,glycan array binding signal (z-score),[27],-0.079
same,glycan array binding signal (z-score),[28],-0.087
same,glycan array binding signal (z-score),[29],-0.058
same,glycan array binding signal (z-score),[30],-0.085
same,glycan array binding signal (z-score),[31],-0.079
same,glycan array binding signal (z-score),[32],-0.077
same,glycan array binding signal (z-score),[33],-0.083
same,glycan array binding signal (z-score),[34],-0.081
same,glycan array binding signal (z-score),[35],-0.085
same,glycan array binding signal (z-score),[36],-0.074
same,glycan array binding signal (z-score),Neu5Ac(a2-3)Gal(b1-4)Glc,-0.057
same,glycan array binding signal (z-score),[37],-0.085
same,glycan array binding signal (z-score),[38],-0.068
same,glycan array binding signal (z-score),[39],-0.087
same,glycan array binding signal (z-score),[40],-0.084
same,glycan array binding signal (z-score),[41],-0.074
same,glycan array binding signal (z-score),[42],-0.086
same,glycan array binding signal (z-score),[43],-0.08
